Experimental data reported in ChEMBL document CHEMBL1201862, “PubChem BioAssay data set” (2004).

These compounds were tested on NCI-H322M (assay: inhibition of tumour cell growth, NCI panel, 48 h).
In the case of `O=C(O)CCC(NC(=O)OCc1ccccc1)C(=O)NC(Cc1c[nH]cn1)C(=O)O` (stereo not drawn) (Cbz-Glu-His-OH; configuration not given here), the GI50 is reported as inactive: > 100 µM.
With `O=C1NC2(CN3CCC2CC3)C(=O)N1CN(Cc1ccccc1)c1ccccc1` (stereo not drawn) the GI50 was inactive: > 100 µM.
In the case of `COC1OC(CO)C(O)C(NC(=O)N(C)N=O)C1O` (stereo not drawn), the GI50 is reported as inactive: > 100 µM.
In the case of `CC1SC2=NC3=C(c4ccccc4C3=O)C(c3ccc(F)cc3)N2C1=O` (stereo not drawn), the GI50 is reported as inactive: > 100 µM.
In the case of `CC1=CCCC(OC(N)=O)C1` (stereo not drawn), the GI50 is reported as inactive: > 100 µM.
`C/C(CC(=O)NC1=CC=C(NC(=O)C/C(C)=N\Nc2ccccc2)CC1)=N/Nc1ccccc1` was tested, and the GI50 was inactive: > 100 µM.
For `CC1(C)OCC(C2CCC3(C)C4=CCC5C(C)(C)C(O)CCC5(C)C4CCC23C)CC(O)C1O` (stereo not drawn), the GI50 was inactive: 16.9 µM.
With `COC(=O)CC(CC(=O)C(=O)OC)C(=O)OC` (stereo not drawn) the GI50 was inactive: > 100 µM.
In the case of `CCN(CC)/N=N/c1c(C(N)=O)n[nH]c1C`, the GI50 is reported as inactive: > 100 µM.
With `C[C@]12CC/C(=N\O)C=C1CC[C@@H]1[C@@H]2CC[C@]2(C)C(=N/O)/C(=C/c3cccnc3)C[C@@H]12` the GI50 was inactive: 18.6 µM.
With `O=[N+]([O-])c1ccc(C2=Nc3ccccc3SC(c3ccccc3)C2)cc1` (stereo not drawn) the GI50 was inactive: 57.4 µM.
For `COc1ccc(CNC(=O)[C@H](Cc2ccc(O)cn2)NC(C)=O)cc1`, the GI50 was inactive: > 100 µM.
`Fc1ccc(/N=C/C=C/Nc2ccc(F)cc2)cc1` was tested, and the GI50 was inactive: 12.7 µM.
For `c1csc(-c2ccc(-c3ccc(-c4ccc(-c5cccs5)s4)s3)s2)c1`, the GI50 was inactive: > 100 µM.
In the case of `CC(C)(C)[Si](C)(C)OCC1OC(n2ccc(=O)[nH]c2=O)C(O[Si](C)(C)C(C)(C)C)[C@]12O[C@@H]2CO` (stereo partly drawn), the GI50 is reported as inactive: 18.5 µM.
With `COC1=CC(=O)C2=C(C1=O)[C@H]1CC[C@]3(C)[C@@H](OC(C)=O)CC[C@H]3[C@@H]1CC2` the GI50 was inactive: > 100 µM.
In the case of `O=C(Nc1noc(-c2ccccc2)n1)c1ccccc1CNc1noc(-c2ccccc2)n1`, the GI50 is reported as inactive: > 100 µM.
For `c1ccc(C2=NC3OC2c2ccccc23)cc1` (stereo not drawn), the GI50 was inactive: > 10 µM.
In the case of `O=C(O)c1cccc(SSc2cccc(C(=O)O)c2)c1`, the GI50 is reported as inactive: > 100 µM.
With `Cc1c(/C=N/N=C/c2[nH]c(C(=O)OC(C)(C)C)c(C)c2C)[nH]c(C(=O)OC(C)(C)C)c1C` the GI50 was inactive: > 100 µM.
For `O=C1C(=O)N(c2cc(Cl)ccc2Cl)C(=O)C(=O)C1c1nc2ccccc2o1`, the GI50 was inactive: > 100 µM.
For `CC(=O)OCC1OC(Oc2cc(C)c(O)cc2C/C=C(\C)CC/C=C(\C)CC(=O)CC(C)C)C(O)C(OC(C)=O)C1OC(C)=O` (stereo not drawn), the GI50 was inactive: 6.47 µM.
In the case of `Cc1cc(-c2nc3ccc(F)cc3s2)ccc1NC(=O)[C@H](C)N`, the GI50 is reported as inactive: 7.82 µM.
With `CSCCCCCCCCCCOc1ccc(C=C2C(=C(C#N)C#N)c3ccccc3C2=C(C#N)C#N)cc1` the GI50 was inactive: 16.9 µM.
In the case of `CCCCCC(/C=N/NC(N)=S)C(O)(C(F)(F)F)C(F)(F)F` (stereo not drawn), the GI50 is reported as inactive: > 10 µM.
In the case of `CC[n+]1[b-](C(C)(C)C)n(/N=C/C(C)(C)C)[b-](C(C)(C)C)[n+]1CC`, the GI50 is reported as inactive: > 100 µM.
In the case of `Cc1ccc(NC(=O)/C(CC2Nc3c(ccc4c3C(=O)c3ccccc3C4=O)NC2O)=N/NC(C)(C)C)cc1` (stereo not drawn), the GI50 is reported as inactive: 3.29 µM.
`CSC(=S)c1ccc(C(=S)SC)cc1` was tested, and the GI50 was inactive: > 100 µM.
`O=[N+]([O-])c1cccc(/C=N/NC2=CS(=O)(=O)C=C2)c1` was tested, and the GI50 was inactive: > 100 µM.
In the case of `O=C(CC(C(=O)c1ccco1)c1cccs1)c1cccs1` (stereo not drawn), the GI50 is reported as inactive: > 100 µM.
For `O=C(NC/C=C/Br)NC1CCNc2ccccc21` (stereo not drawn), the GI50 was inactive: 51.3 µM.
For `Cc1ccc(C)c(NC(=O)CCc2nnc(S)[nH]2)c1`, the GI50 was inactive: > 100 µM.
With `O=C(CN1CCOCC1)c1ccc2c(c1)oc(=O)n2CCN1CCOCC1` the GI50 was inactive: > 100 µM.
With `C=C1CCCCCCCCC/C=C/1SCCCSC` the GI50 was inactive: > 100 µM.
With `COc1ccccc1NC(=O)CC(=O)n1nc(C)c(/N=N/c2ccccc2F)c1C` the GI50 was inactive: > 100 µM.
`CC1=C(C)C(=O)C(C2=C(C3=CC(=O)C(C)=C(C)C3=O)C(=O)c3ccccc3C2=O)=CC1=O` was tested, and the GI50 was inactive: 9.95 µM.
In the case of `O=c1cccccc1O` [TROPOLONE], the GI50 is reported as inactive: > 100 µM.
`Cc1cc(S(=O)(=O)N=C2N(Cc3ccccc3)CCN2Cc2ccccc2)c(S)cc1Cl` was tested, and the GI50 was inactive: 74.3 µM.
In the case of `O=C(c1nc2ccc([N+](=O)[O-])cc2nc1O)C(O)c1ccc2c(c1)OCO2` (stereo not drawn), the GI50 is reported as inactive: > 100 µM.
With `CC(C)(C)C1CC[C@H]2c3c([nH]c4ccccc34)[C@H]3C(=O)N(c4ccc(F)cc4)C(=O)[C@H]3[C@H]2C1` (stereo partly drawn) the GI50 was inactive: 19.5 µM.
`COc1ccc(/C=C2\CCC(C)C3=C(c4ccc(OC)c(OC)c4)C(C#N)=C(N)OC32)cc1OC` (stereo not drawn) was tested, and the GI50 was inactive: 4.35 µM.
In the case of `CCOC(=O)c1cc(C)nc2c1c(=O)n(-c1ccccc1)c(=O)n2CCCCN1CCN(c2ncccn2)CC1`, the GI50 is reported as inactive: 85.5 µM.
With `Cc1nc2c(N)ncnc2o1` the GI50 was inactive: > 100 µM.
`N=C(N)SCc1cccc([N+](=O)[O-])c1` was tested, and the GI50 was inactive: 55.7 µM.
`COC(=O)c1cc(C)ccc1C1CN=NC12Cc1cccc(C)c1C2=O` (stereo not drawn) was tested, and the GI50 was inactive: 50.6 µM.
For `[O-][n+]1onc2c1CCC(=N\O)/C2=N/Nc1ccccc1`, the GI50 was inactive: > 100 µM.
`COc1ccc(/C(Cl)=C(\C=O)c2ccc(Cl)c(Cl)c2)cc1OC` was tested, and the GI50 was inactive: 5.31 µM.
For `CC(=O)O[C@H]1[C@@H]2OC(=O)[C@@](O)(CC3CCCO3)[C@@H]2CC(=O)[C@](C)(O)CC/C=C(\C)CCC[C@@H]1C` (stereo partly drawn), the GI50 was inactive: > 100 µM.
For `C(/Cc1ccc2c(c1)OCO2)=N\N=C1NCCCN1`, the GI50 was inactive: > 100 µM.
With `O=C(c1ccc(Cl)c(Cl)c1)N(Cc1cccnc1)C(=S)N(Cc1cccnc1)C(=O)c1ccc(Cl)c(Cl)c1` the GI50 was inactive: 27.7 µM.
For `O=C(O)CCN(CCCN(CCC(=O)O)CCC(=O)O)CCC(=O)O`, the GI50 was inactive: > 100 µM.
For `COc1ccc(/C=C(/C#N)C(N)=O)c(OC)c1`, the GI50 was inactive: > 100 µM.
With `CC(=O)OCC1OC(n2c(C)c(C)c(C)c(C#N)c2=S)C(OC(C)=O)C(OC(C)=O)C1OC(C)=O` (stereo not drawn) the GI50 was inactive: > 100 µM.
In the case of `COc1ccc(-c2cc(O)c3cc(Cl)ccc3n2)cc1`, the GI50 is reported as inactive: > 100 µM.
`O=C1C=C(Nc2ccc(Br)cc2)c2ccccc2/C1=N/O` was tested, and the GI50 was inactive: 1.63 µM.
For `COC(=O)CC(=O)OC`, the GI50 was inactive: > 100 µM.
`COC(=O)N(C(=O)OC)C(C(=O)O)C(C)C` (stereo not drawn) was tested, and the GI50 was inactive: > 100 µM.
For `N#Cc1cccc(N2C(=O)c3ccc(C(=O)c4ccc5c(c4)C(=O)N(c4cccc(C#N)c4)C5=O)cc3C2=O)c1`, the GI50 was inactive: > 100 µM.
`c1ccc(C2C3=C(Nc4ncnn42)c2ccccc2C3)cc1` (stereo not drawn) was tested, and the GI50 was inactive: 36.7 µM.
`CC(C)COP(=O)(OCC(C)C)C(NS(=O)(=O)c1ccccc1)(C(F)(F)F)C(F)(F)F` was tested, and the GI50 was inactive: 4.27 µM.
In the case of `COc1cc(CNC(=O)[C@H](Cc2ccc(O)cn2)NC(C)=O)cc(OC)c1`, the GI50 is reported as inactive: 94.4 µM.
For `O=c1[nH]nc(Cc2ccccc2)[nH]1`, the GI50 was inactive: > 100 µM.
In the case of `OC(CCl)CN1CC[N+]2(CC1)CC[N+]1(CCN(CC(O)CCl)CC1)CC2` (stereo not drawn) [PROSPIDIUM CHLORIDE], the GI50 is reported as inactive: > 50 µM.
In the case of `CC(C)(CN1C(=O)C(Cl)=C(Cl)C1=O)CN1C(=O)C(Cl)=C(Cl)C1=O`, the GI50 is reported as inactive: 24.8 µM.
`CCCc1ccc(NCc2cc(OC)c(OC)c(OC)c2)cc1` was tested, and the GI50 was inactive: 57.7 µM.
In the case of `O=c1[nH]nc(-c2ccccc2)n1/N=C/c1ccncc1`, the GI50 is reported as inactive: > 100 µM.
`CCOC(=O)C(/C(=N/NC(=O)OC)C(=O)Nc1ccc(C(C)=O)cc1)c1cnc2ccccc2n1` (stereo not drawn) was tested, and the GI50 was inactive: > 100 µM.
With `CC(C)(O)C1CC(=O)C(C)(C2C(O)CC3(C)C4CC=C5C(CCC(O)C5(C)C)C4(C)C(=O)CC23C)O1` (stereo not drawn) the GI50 was inactive: > 100 µM.
With `CN(C)CCNC(=O)c1cccc2ccc(-c3ccc(F)cc3)nc12` the GI50 was inactive: 5 µM.
In the case of `O=c1[nH]c(=O)n(C2CC(O)C(CO)O2)cc1C#Cc1cc(C(F)(F)F)cc(C(F)(F)F)c1` (stereo not drawn), the GI50 is reported as inactive: > 67.8 µM.
With `CN(C)CCNc1ccc([N+](=O)[O-])c2sc3ccccc3c(=O)c12` the GI50 was inactive: 4.36 µM.
With `C=C(Cl)/C(=C\Cl)CCC(Cl)C(C)C` (stereo not drawn) the GI50 was inactive: > 100 µM.
For `CCOC(=O)C(=O)Nc1ccc(C)cc1C`, the GI50 was inactive: > 100 µM.
`O=C(c1cccs1)N(C(=O)N1CCN(c2ccccc2)CC1)S(=O)(=O)c1ccccc1` was tested, and the GI50 was inactive: 40 µM.
`N[C@@H](Cc1ccc(N(CCCl)CCCl)cc1)C(=O)O` [MELPHALAN HYDROCHLORIDE] was tested, and the GI50 was inactive: 82.4 µM.
In the case of `Nc1n[n+]([O-])c2cc([N+](=O)[O-])ccc2[n+]1[O-]`, the GI50 is reported as inactive: 22.9 µM.
In the case of `O=C(O)C(=C\c1ccc2c(c1)OCO2)/C(=C/c1ccc2c(c1)OCO2)C(=O)O`, the GI50 is reported as inactive: > 100 µM.
`COc1ccc(/C=C2/N/C(=N\N=C/C(O)C(O)C(O)CO)NC2=O)cc1` (stereo not drawn) was tested, and the GI50 was inactive: > 100 µM.
In the case of `CSc1ncnc2c1ncn2CCC(=O)O`, the GI50 is reported as inactive: > 100 µM.
With `N#CC(C#N)=Cn1c(=S)[nH]c2ccc([N+](=O)[O-])cc21` the GI50 was inactive: > 100 µM.
In the case of `CCOc1ccc(Nc2nc(N)nc(N)c2N=O)cc1`, the GI50 is reported as inactive: 51.4 µM.
`Cc1cc(C)c(C2=NOC(c3ccccc3)(c3cc(=O)n(-c4ccccc4)s3)O2)c(C)c1` (stereo not drawn) was tested, and the GI50 was inactive: > 100 µM.
In the case of `Cc1ccc(C2=NN(C)COC2C(F)(F)F)cc1` (stereo not drawn), the GI50 is reported as inactive: > 100 µM.
In the case of `COC(=O)C(CCC#N)(CCC#N)C(=O)OC`, the GI50 is reported as inactive: > 100 µM.
With `O=c1c2ccccc2[se]n1-c1cccnc1` the GI50 was inactive: 43 µM.
`COC(=O)/C=C\C(C#N)(C#N)/N=C/c1cccc(OC)c1` was tested, and the GI50 was inactive: 17 µM.
In the case of `c1ccc(-c2ccc(-c3cc4ccccc4[nH]3)cc2)cc1`, the GI50 is reported as inactive: > 100 µM.
For `N#CC(C(=O)CCC(=O)Nc1ccc(Cl)cc1)c1ccccc1Cl` (stereo not drawn), the GI50 was inactive: > 100 µM.
For `Cc1cccc(-c2nnc(S)[nH]2)c1`, the GI50 was inactive: > 100 µM.
With `O=C(c1cccs1)N1CCCN(C(=O)c2cccs2)C1=S` the GI50 was inactive: > 100 µM.
`O=C1C(c2ccccc2)=C(c2ccccc2)C1(Cl)Cl` was tested, and the GI50 was inactive: 11.3 µM.
For `Nc1ccc(C(=O)NN2C(=O)C(Cl)C2c2ccc(O)cc2)cc1` (stereo not drawn), the GI50 was inactive: 17.4 µM.
In the case of `COc1ccc(/C=C2\CCCc3ccccc3C2=O)cc1`, the GI50 is reported as active: 0.317 µM.

Counter-ions that a name gives are not always drawn.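 Growth conditions: 96-well plates. Treatment: test compound, 48 hours, 5 concentrations. Analysis: linear interpolation between bracketing concentrations; unreached endpoints set to highest concentration. GI50 = concentration required for 50% inhibition of growth.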 Active and inactive are the calls of the source. Cut-off read from the data, not from the text of the source: active = GI50 up to about 1.1 µM and inactive = higher. Peptide text beside a SMILES is read from it. * marks the point of attachment. Cbz = O=C(OCc1ccccc1)*
